The campaign covered roughly 310,000 compounds. About 14,000 (4.5%) showed an effect of 50% or more. Effects have a minus sign here. Some of the results follow.
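Also: peak tail current of the secondary pulse compared with the same well before compound.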

human ether-à-go-go-related gene (hERG) potassium channel, sequence (Q12809 whole entry, looked up): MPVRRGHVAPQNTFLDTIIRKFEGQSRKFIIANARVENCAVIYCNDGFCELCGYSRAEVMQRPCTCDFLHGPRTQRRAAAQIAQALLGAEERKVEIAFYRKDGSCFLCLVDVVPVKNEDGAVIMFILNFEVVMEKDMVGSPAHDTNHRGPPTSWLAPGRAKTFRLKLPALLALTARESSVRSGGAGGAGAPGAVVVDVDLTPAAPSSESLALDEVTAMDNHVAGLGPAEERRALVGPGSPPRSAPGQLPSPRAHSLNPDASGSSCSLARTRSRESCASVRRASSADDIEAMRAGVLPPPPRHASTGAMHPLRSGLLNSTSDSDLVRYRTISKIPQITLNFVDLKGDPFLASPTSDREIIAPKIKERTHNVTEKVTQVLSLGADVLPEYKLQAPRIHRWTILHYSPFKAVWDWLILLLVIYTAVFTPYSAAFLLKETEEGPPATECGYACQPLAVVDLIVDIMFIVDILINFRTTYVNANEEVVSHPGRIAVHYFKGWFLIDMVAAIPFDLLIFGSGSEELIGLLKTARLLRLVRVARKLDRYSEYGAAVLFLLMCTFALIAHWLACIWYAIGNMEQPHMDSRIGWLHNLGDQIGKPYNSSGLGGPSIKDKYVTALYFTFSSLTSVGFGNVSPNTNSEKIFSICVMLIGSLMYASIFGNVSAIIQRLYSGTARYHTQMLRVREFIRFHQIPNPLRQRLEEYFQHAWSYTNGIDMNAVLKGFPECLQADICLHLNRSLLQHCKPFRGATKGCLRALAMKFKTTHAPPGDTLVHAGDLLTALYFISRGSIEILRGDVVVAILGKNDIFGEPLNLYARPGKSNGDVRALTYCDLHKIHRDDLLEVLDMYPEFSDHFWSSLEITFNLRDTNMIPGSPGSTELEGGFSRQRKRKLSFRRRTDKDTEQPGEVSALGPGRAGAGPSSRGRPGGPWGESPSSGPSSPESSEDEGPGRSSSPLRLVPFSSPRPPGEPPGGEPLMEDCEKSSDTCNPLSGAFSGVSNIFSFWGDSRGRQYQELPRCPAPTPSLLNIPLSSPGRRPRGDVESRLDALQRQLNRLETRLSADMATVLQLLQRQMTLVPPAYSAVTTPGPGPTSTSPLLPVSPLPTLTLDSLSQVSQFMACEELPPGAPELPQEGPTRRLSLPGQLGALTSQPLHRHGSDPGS

This experiment has as its target human ether-à-go-go-related gene (hERG) potassium channel (human, UniProt Q12809). Nature of the experiment: primary screen, population patch clamp on CHO cells stably expressing hERG.
Consider `CC1(c2ccc3ccccc3c2)NC(=O)N(CC(=O)N2CCN(c3ccccc3O)CC2)C1=O` (stereo not shown), for which the “hERG current change (%, negative = inhibition) at 10uM” value came out at 4.12%.
Consider `COC(=O)COc1ccc2c(=O)c(-c3ccccc3)coc2c1`, for which the “hERG current change (%, negative = inhibition) at 10uM” value was 12.2%.
In the case of `C[C@H]1C[C@@H](C)C(=O)[C@@H]([C@H](O)CC2CC(=O)NC(=O)C2)C1`, the “hERG current change (%, negative = inhibition) at 10uM” value stood at 20.2%.
Take `CCOC(=O)c1cc2cc([N+](=O)[O-])cc(OC)c2oc1=O`: the “hERG current change (%, negative = inhibition) at 10uM” value is recorded as -6.82%.
With `COc1ccc(C2(C)NC(=O)N(CC3CCCCC3)C2=O)cc1` (stereo not shown), the “hERG current change (%, negative = inhibition) at 10uM” value is reported as 9.8%.
On to `O=C(c1ccc(Cl)c(S(=O)(=O)NCc2ccccc2)c1)N1CCN(c2ccccn2)CC1`, for which the “hERG current change (%, negative = inhibition) at 10uM” value is -50.3%.
`CC1CCN(c2ccc(C(=O)Nc3nnc(C4CC4)s3)cc2[N+](=O)[O-])CC1`: the “hERG current change (%, negative = inhibition) at 10uM” value is reported as 18.8%.
On to `Cc1csc(NC(=O)c2cnccn2)n1`, for which the “hERG current change (%, negative = inhibition) at 10uM” value is reported as 5.47%.
For the molecule `Cc1c(C(=O)N2CCCC2)sc(NC(=O)c2ccc(Cl)cc2)c1C#N`, the “hERG current change (%, negative = inhibition) at 10uM” value stood at 11%.
For `CN1CCCN(C(=O)C2CCCCC2)CC1` the value was 8.68%; for `O=P(c1ccccc1)(c1ccccc1)N1CCCCC1`, -6.36%.
`Cc1ccc(C(=O)/C=C/c2cn(CC(O)CN3CCOCC3)c3ccccc23)cc1` (stereo not shown): the “hERG current change (%, negative = inhibition) at 10uM” value is reported as -4.11%.
As for `CC(C)N(Cc1nc(-c2ccccc2)no1)C(=O)Cc1ccccc1`, the “hERG current change (%, negative = inhibition) at 10uM” value was -15.4%.
For `O=C(NC1CCS(=O)(=O)C1)c1cccc(Cl)c1` (stereo not shown) the value was 8.91%; for `Cc1nc2scc(C)n2c(=O)c1S(=O)(=O)NCC1CCN(Cc2ccc(F)cc2)CC1`, -49.7%.
Consider `O=C1CSC(c2ccc([N+](=O)[O-])cc2)N1c1ccc(O)cc1` (stereo not shown), for which the “hERG current change (%, negative = inhibition) at 10uM” value amounted to 7.95%.
In the case of `O=C(CCc1nnc(CCCCc2ccccc2)o1)NCCc1cccnc1`, the “hERG current change (%, negative = inhibition) at 10uM” value is given as -37.2%.
For `CC(C)NS(=O)(=O)c1cc(F)ccc1CN1C(=O)c2cccnc2C1=O`, the “hERG current change (%, negative = inhibition) at 10uM” value turned out to be 10.5%.
For `COc1ccc2cc(CCNC(=O)c3ccc(Br)o3)c(=O)[nH]c2c1`, the “hERG current change (%, negative = inhibition) at 10uM” value is recorded as -9.51%.
For `COc1cccc(C2CC(c3ccc(Cl)cc3Cl)n3nc(N)nc3N2)c1` (stereo not shown) the value was -27.2%; for `CCOc1ccc(S(=O)(=O)N2CCC(c3ccccc3)CC2)cc1C(=O)O`, 18.2%.
For `COc1cccc(C(=O)NNC(=O)c2sccc2-n2cccc2)c1`, the “hERG current change (%, negative = inhibition) at 10uM” value amounted to 24.7%.
Regarding `COc1ccc(C2CC(=O)C3=C(C2)Nc2ccccc2N(C(C)=O)C3c2ccco2)cc1` (stereo not shown), the “hERG current change (%, negative = inhibition) at 10uM” value is given as -35.8%.
For `COC(=O)c1ccc(CN2CCN(C3CCCCC3)C(CCO)C2)cc1` (stereo not shown) the value was -22.9%; for `CN(C)c1c([N+](=O)[O-])cc2[nH]c(=O)[nH]c2c1[N+](=O)[O-]`, -9.83%.
Turning to `Cc1cc(-n2nc3ccccc3n2)c(O)c([N+](=O)[O-])c1`, the “hERG current change (%, negative = inhibition) at 10uM” value is on record as 6.11%.
Next, `COc1ccc(CNC(=O)C(c2ccco2)N(C(=O)CNS(=O)(=O)c2ccccc2)c2ccccc2C)cc1` (stereo not shown): -12.6%; `CN1c2ccccc2C(=O)/C(=C\Nc2ccc(F)cc2)S1(=O)=O`: 0.835%.
For `COCCCN1C(=O)C(=O)/C(=C(/O)c2ccc(OC)cc2)C12C(=O)N(C)c1ccccc12` (stereo not shown) the value was 6.06%.
For `CC/C=C(/NC(C)=O)c1ccccc1` the value was 13%; for `c1ccc(-c2nnc3sc(CN4CCC5(CC4)OCCO5)cn23)cc1`, -20.6%.
As to `Cn1c(SCC(=O)Nc2cccc(F)c2)nc2c([nH]c3ccccc32)c1=O`, the “hERG current change (%, negative = inhibition) at 10uM” value turned out to be 17.9%.
For `CCCC(=O)NNC(=O)CC(=O)Nc1ccccc1C(=O)O` the value was 7.79%; for `C=CCn1c(=O)c2c(nc(Br)n2Cc2ccccc2Cl)n(C)c1=O`, -9.64%; for `Cc1ccc(NC(=O)c2sc(N)nc2-c2ccc([N+](=O)[O-])cc2)c(C)c1`, 2.18%.
For `O=C(CNCc1ccc(Cl)cc1)N1CCc2ccccc2C1` the value was -44.7%; for `COc1ccc(C2NC(=O)CCC2[N+](=O)[O-])c(OC)c1OC` (stereo not shown), 12.2%.
For the molecule `C=CCNc1oc(-c2ccco2)nc1S(=O)(=O)c1ccccc1`, the “hERG current change (%, negative = inhibition) at 10uM” value is on record as -4.58%.
Consider `COc1ccc(S(=O)(=O)N2CCCC2)cc1Br`, for which the “hERG current change (%, negative = inhibition) at 10uM” value amounted to 6.83%.
Turning to `O=C(NCc1cccnc1)c1ccccc1NS(=O)(=O)c1ccccc1`, the “hERG current change (%, negative = inhibition) at 10uM” value turned out to be 9.45%.
For the molecule `COc1ccccc1Nc1c2c(nc3ccccc13)CCC2`, the “hERG current change (%, negative = inhibition) at 10uM” value is recorded as -45.6%.
For the molecule `O=C1NC(c2ccccc2)C(C(=O)c2cccs2)=C1O` (stereo not shown), the “hERG current change (%, negative = inhibition) at 10uM” value came out at 21.9%.
For `Cc1ccc(OC(=O)c2cccc(C(=O)Oc3ccc(C)cc3)n2)cc1` the value was 15.2%; for `CC(NC(=O)C(C)N1CCN(Cc2ccccc2)CC1)c1ccc(F)cc1` (stereo not shown), 5.35%; for `N#C/C(=C\C=C\c1ccccc1)c1nc(-c2ccc(Cl)cc2)cs1`, 11.7%.
In the case of `CC(=O)Nc1c(O)nc(SCc2ccccc2C#N)[nH]c1=O`, the “hERG current change (%, negative = inhibition) at 10uM” value is 6.95%.
In the case of `CCOC(=O)c1cn(CC(=O)Nc2ccc(OC)cc2OC)nn1`, the “hERG current change (%, negative = inhibition) at 10uM” value was 9.07%.
For `O=C(COc1ccc(S(=O)(=O)N2CCOCC2)cc1)NC1CCCCC1`, the “hERG current change (%, negative = inhibition) at 10uM” value is 4.67%.
For `COC(=O)Cc1csc(Nc2ccc(Cl)cc2)n1` the value was 7.01%; for `Cc1c(C)c2ccc(OCC(=O)NCCCn3ccnc3)c(C)c2oc1=O`, -32.7%.
As to `CCO[C@@H]1OC(C(=O)NCc2ccccc2)=C[C@H](C)[C@H]1CCCO`, the “hERG current change (%, negative = inhibition) at 10uM” value turned out to be 4.01%.
`CC(C)n1c(NCCO)nc2ccccc21`: the “hERG current change (%, negative = inhibition) at 10uM” value was determined as 25.8%.
With `Cc1ccc(-n2nc3c(N4CCC(C(=O)NCc5ccc(C)o5)CC4)nnc(C)c3c2C)cc1`, the “hERG current change (%, negative = inhibition) at 10uM” value is -22.3%.
For `CC(C)CC(=O)Nc1c2c(nn1-c1ccc(F)cc1)CSC2` the value was 10.1%; for `CCN(CC)CCCC(C)NC(=O)c1cccc(S(=O)(=O)N2CCc3ccccc32)c1.Cl` (stereo not shown), -58.5%; for `CCC(CC)C(=O)Nc1cccc(-c2nc3ccccc3o2)c1`, -29%.
`COc1cccc(N2CC(NS(=O)(=O)c3cccnc3)CC2=O)c1` (stereo not shown): the “hERG current change (%, negative = inhibition) at 10uM” value is -4.15%.
For the molecule `COc1cc(NC(=O)CN2C(=O)C(=O)N(C3CCCC3)C2=O)cc(OC)c1`, the “hERG current change (%, negative = inhibition) at 10uM” value is listed as 1.58%.
Turning to `C#CCOc1ccc2c(C)cc(=O)oc2c1`, the “hERG current change (%, negative = inhibition) at 10uM” value came out at 1.74%.
Regarding `Cc1ccccc1C(=O)N1CCC(C(=O)Nc2ccc(S(=O)(=O)N3CCCC3)cc2)CC1`, the “hERG current change (%, negative = inhibition) at 10uM” value was -2.51%.
As for `CC(C)(C)NC(=O)C(c1cccs1)N(CC1CCCO1)C(=O)Cn1nnc(-c2cccs2)n1` (stereo not shown), the “hERG current change (%, negative = inhibition) at 10uM” value was -4.96%.
Take `Cc1cccc(NC(=O)CSc2nnnn2C)n1`: the “hERG current change (%, negative = inhibition) at 10uM” value is listed as 17.6%.
Regarding `CC(Oc1ccc(F)cc1)C(O)CCN(C)C` (stereo not shown), the “hERG current change (%, negative = inhibition) at 10uM” value turned out to be 26%.
Consider `COc1cc(OC)cc(C(=O)Nc2ccccc2S(=O)(=O)N2CCCC2OC(C)=O)c1` (stereo not shown), for which the “hERG current change (%, negative = inhibition) at 10uM” value is listed as -8.54%.
Consider `O=C(c1nc2ccc(Cl)cn2c1CNCC[C@@H]1C[C@@H]2C=C[C@H]1C2)N1CCCCCCC1`, for which the “hERG current change (%, negative = inhibition) at 10uM” value is listed as 3.14%.
As for `O=C(C[n+]1cccc(/C=N/O)c1)N(Cc1ccccc1)Cc1ccccc1.[Cl-]`, the “hERG current change (%, negative = inhibition) at 10uM” value was -1.91%.
Take `COc1ccc(N(C)C(=O)c2cnc(N3CCN(c4ncccn4)CC3)c3ccccc23)cc1`: the “hERG current change (%, negative = inhibition) at 10uM” value was -11.8%.
For `N#CCCN1CCN(Cc2cc(-c3ccccc3)ccc2O)CC1` the value was -48.8%; for `COc1ccc(CN(CC(=O)NCc2ccccc2)C(=O)c2csnn2)cc1`, -26.6%; for `Cc1ccc(NC(=O)Cn2cc(S(=O)(=O)c3ccccc3)c(=O)c3cc(F)ccc32)cc1`, -5.8%.
For the molecule `O=C(/C=C/c1ccc([N+](=O)[O-])cc1)NCc1ccccn1`, the “hERG current change (%, negative = inhibition) at 10uM” value was -49.2%.
Consider `O=S(=O)(NCc1ccccn1)c1ccc(Cl)s1`, for which the “hERG current change (%, negative = inhibition) at 10uM” value is given as 14.9%.
Take `COc1cc(/C=C2\SC(=S)N(NC(=O)c3cccnc3)C2=O)ccc1O`: the “hERG current change (%, negative = inhibition) at 10uM” value was -6.14%.
As to `CC(C)CNC(=O)COC(=O)C1c2ccccc2Oc2ccccc21`, the “hERG current change (%, negative = inhibition) at 10uM” value is given as -27.2%.
Consider `Cc1sc2nc3n(c(=O)c2c1C)CCCCC3`, for which the “hERG current change (%, negative = inhibition) at 10uM” value is on record as -9.59%.
Take `CC[C@@H](C)[C@H](NC(=O)Cc1c(C)c2cc3c(C)c(C)oc3c(C)c2oc1=O)C(=O)O`: the “hERG current change (%, negative = inhibition) at 10uM” value is -7.43%.
Regarding `CCN(C(=O)CSc1nc2ccccc2c(=O)n1C(C)COC)C1CCS(=O)(=O)C1` (stereo not shown), the “hERG current change (%, negative = inhibition) at 10uM” value was -22.8%.
On to `Cc1ccc(S(=O)(=O)CCC(=O)NCCC2=CCCCC2)cc1`, for which the “hERG current change (%, negative = inhibition) at 10uM” value was 2.86%.
Regarding `O=C(CN(Cc1ccccc1Cl)C(=O)CNS(=O)(=O)c1ccccc1)NCC1CCCO1` (stereo not shown), the “hERG current change (%, negative = inhibition) at 10uM” value was found to be 11.3%.
For `CCCCN(C)C(=O)c1cc2cc3ccc(OC)cc3nc2s1` the value was 11%; for `CCOC(=O)C1=C(C)NC(=O)NC1c1cccs1` (stereo not shown), 11.5%.
Next, `CC(C(=O)Nc1nccs1)c1ccc([N+](=O)[O-])cc1` (stereo not shown): -72%.
`O=C(Nc1cc(C(=O)Nc2ccccc2C(=O)O)cc(C(=O)Nc2ccccc2C(=O)O)c1)c1ccccc1`: the “hERG current change (%, negative = inhibition) at 10uM” value was 7.91%.
In the case of `Cc1ccc(Oc2nc(-c3ccccn3)nc3ccccc23)cc1`, the “hERG current change (%, negative = inhibition) at 10uM” value is given as -9.59%.
As for `Fc1ccc(N2CCN(Cc3c[nH]c4ccccc34)CC2)cc1`, the “hERG current change (%, negative = inhibition) at 10uM” value is given as -68.3%.
On to `COc1ncnc2c1ncn2CC1COC(C)(C)O1` (stereo not shown), for which the “hERG current change (%, negative = inhibition) at 10uM” value was 15.9%.
Next, `Oc1cccc2c(NC(=S)Nc3ccc(SC(F)F)cc3)cccc12`: -1.61%; `CC(=O)C1=C(C)N(Cc2ccccc2)C(=O)N[C@H]1c1ccco1`: 1.2%.

For the origin of these results see publication PMC4336329 (PLoS ONE, 2015).
